PubChem BioAssay AID1345083 (National Center for Advancing Translational Sciences (NCATS), 2018)
Where “and” joins values, the source holds several entries; their conditions need not be identical. Equal entries are not always repeated. About 6,200 (6.6%) of roughly 94,000 compounds were called active. The inconclusive results got no clear call from the source; some entries with a clear call stand among them for comparison. Calls come from the whole dose curve; as a rule, active = well fitted inhibition curve with a large enough effect; inconclusive = small, poorly fitted or top-dose-only effect; inactive = flat fitted curve, though single readings scatter. Potencies beside an inconclusive call are fits to weak or partial responses and may not hold up.

test: Cytotoxic Profiling in HEK 293 Cell Line of Diverse Libraries Using Quantitative High-Throughput Screening; conditions: HEK 293 viability, ATP luminescence (CellTiter-Glo), 48-72 h; series mostly up to 115 µM; note: nearly all actives have a fitted effect of over 60% in size
Summary of the method: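 HEK 293 cells seeded at 250 cells/well were exposed to compound for 48 or 72 hr at 37 degree Celsius. Viability taken as ATP content by CellTiter-Glo luminescence.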
Potency is the fitted concentration of half-maximal effect; tags give direction and shape of the fitted curve.

Row | Structure (SMILES) | Potency
1 | Cc1oc2ccn(Cc3ccc(F)cc3)c(=O)c2c1C(=O)NC1CC1 | inconclusive: 44.7 µM [inhibitor, partial curve, poor fit]
2 | COc1cccc(Nc2cnc3ccc(-c4ccc(OC)c(OC)c4)nn23)c1 | active: 56.2 µM
3 | COc1ccc2c(c1)nc1n2[C@@H](CNCc2ccc3c(c2)OCO3)COC1 | active: 56.2 µM
4 | COc1ccc(CCc2nc3nccc(-c4ccc(OC)c(OC)c4)n3n2)cc1 | active: 35.5 µM
5 | CC(C(=O)N1CCCC1)N1C(=O)COc2ccc(C(=O)COc3ccc(Cl)cc3)cc21 (stereo not drawn) | inconclusive: 50.1 µM [inhibitor, partial curve, poor fit]
6 | Cc1ccc(C2Cn3nnc(C(=O)N4CCN(C(=O)c5cccc(N(C)C)c5)CC4)c3CO2)cc1 (stereo not drawn) | active: 17.8 µM
7 | COc1ccc(NC(=O)O[C@@H]2CO[C@H]3[C@@H]2OC[C@@H]3NC(=S)Nc2cccc3ccccc23)cc1 | inconclusive: 56.2 µM [inhibitor, partial curve, poor fit]
8 | COc1ccc(C(=O)N2CCc3ccc(C(=O)NCc4ccccn4)cc32)cc1 | inconclusive: 89.1 µM [inhibitor, partial curve, poor fit]
9 | COc1cccc(-c2cn3cc(C(=O)NC4CCCCCC4)nc3s2)c1 | inconclusive: 39.8 µM [inhibitor, full curve, poor fit]
10 | COc1ccc(CCC(=O)N2CCC(c3n[nH]c(=O)n3-c3ccccc3)CC2)cc1 | inactive
11 | CC(C)C1CN(C(=O)CNC(=O)N(C)C)CCCN1Cc1ccc(F)cc1 (stereo not drawn) | inconclusive: 79.4 µM [inhibitor, partial curve, poor fit]
12 | Cc1ccc(CN2C[C@H](O)C[C@H]2c2nc(-c3ccc(F)cc3)no2)cc1 | inconclusive: 112 µM [inhibitor, partial curve, poor fit]
13 | O=C(NCCn1cccc1-c1nc(-c2ccc3c(c2)OCO3)no1)c1ccc(Cl)cc1 | inconclusive: 25.1 µM [inhibitor, full curve, poor fit]
14 | O=C(C1CCCN([S+](=O)([O-])c2cccs2)C1)N1CCCC(c2nc3ncccc3[nH]2)C1 (stereo not drawn) | active: 89.1 µM
15 | COc1ccc(CNC(=O)C[C@@H]2CCNC[C@@H]2Cc2cc(-c3ccccc3)on2)cc1OC | inactive
16 | O=C(C1CN(S(=O)(=O)c2cccnc2)CC12CCCCC2)N1CCc2ccccc2C1 (stereo not drawn) | inconclusive: 79.4 µM [inhibitor, single point]
17 | CCCCOc1ccc(C(=O)N2CCC[C@H]2c2nc(-c3ccc(OC)c(OC)c3)no2)cc1 | inconclusive: 50.1 µM [inhibitor, partial curve, poor fit]
18 | CC(Cn1cncn1)NCc1cc(=O)c2cc(F)ccc2[nH]1 (stereo not drawn) | inactive
19 | COc1ccccc1-c1ccc2c(C(=O)NCc3cccc(Cl)c3)nn(C)c2n1 | inconclusive: 35.5 µM [inhibitor, full curve]
20 | CC[C@H]1CN(C(=O)c2ccnc(Cl)c2)CC[C@H]1CC(=O)NCc1ccc2c(c1)OCO2 | inconclusive: 89.1 µM [inhibitor, single point]
21 | O=C(NCCc1ccccc1)C1CCN(c2ccnc3ccnn23)CC1 | inconclusive: 89.1 µM [inhibitor, partial curve, poor fit]

Row | Structure (SMILES) | Potency
22 | N#Cc1cccc(-c2cn3c(n2)N(C(=O)COc2ccccc2)CCC3)c1 | inconclusive: 39.8 µM [inhibitor, partial curve]
23 | Cc1ccc(OCc2nc(C3CCN(S(=O)(=O)Cc4ccccc4F)C3)no2)cc1 (stereo not drawn) | active: 25.1 µM
24 | CC(C)CCNC(=O)C1CCc2sc(C(=O)N3CCCCC3)cc2C1 (stereo not drawn) | inconclusive: 44.7 µM [inhibitor, partial curve, poor fit]
25 | O=C(NC1CC1)c1ccc2nnc(-c3ccc(OC(F)(F)F)cc3)n2c1 | inactive
26 | CC(C)NC(=O)N[C@H]1C[C@@H](Cc2cc(-c3ccccc3)on2)C1(C)C | inconclusive: 44.7 µM [inhibitor, partial curve, poor fit]
27 | COc1ccc(C(=O)N[C@H]2CCOC[C@H]2C2CCOCC2)cc1O | inactive
28 | Cc1ccc(CN[C@@H]2CO[C@H](CNC(=O)c3ccccc3)[C@H]2O)cc1 | inactive
29 | O=C(c1ccc(F)cc1)N1C[C@@H](CO)[C@H](c2nc(C3CC3)no2)C1 | inactive
30 | O=C(NC1CCCC1)c1nc2cccnc2n(CCc2ccccc2)c1=O | inconclusive: 56.2 µM [inhibitor, partial curve, poor fit]
31 | COc1ccccc1-c1ccc(CN2CCCCC2C(=O)NC2CCCCC2)cc1 (stereo not drawn) | active: 22.4 µM and inconclusive: 39.8 µM [inhibitor, full curve, poor fit]
32 | CC(=O)Nc1ccc(CN2CCC3(CC2)COc2ccccc2C(=O)N3)cc1 | inconclusive: 89.1 µM [inhibitor, single point]
33 | Cn1ncc2c(C(=O)Nc3cccc(F)c3)cc(-c3cccc(C(F)(F)F)c3)nc21 | inactive
34 | CC(C)c1nccn1CCCNC(=O)c1ccc(N2CCC(CO)CC2)nc1 | inactive
35 | COCc1ccc2c(c1)c(OC(C)(C)C(=O)NCCc1ccccn1)nn2Cc1ccccc1 | inconclusive: 50.1 µM [inhibitor, partial curve]
36 | Cc1ccc(-c2cc(C(=O)NCc3cccc(F)c3)nn3cnnc23)cc1 | inconclusive: 50.1 µM [inhibitor, partial curve, poor fit]
37 | Cn1cccc1C(=O)N1CCCC(n2cc(-c3nc(C4CC4)no3)nn2)C1 (stereo not drawn) | inactive
38 | CCOC(=O)C1CCCN(C(=O)c2cc(-c3ccccc3OC)c3nncn3n2)C1 (stereo not drawn) | inactive
39 | O=C(NCC(F)(F)F)c1cc(C2CC2)nc2onc(C3CCNC3)c12 (stereo not drawn) | inactive
40 | N#Cc1cccc(-c2cn3cc(C(=O)NCc4ccccc4)nc3s2)c1 | inconclusive: 89.1 µM [inhibitor, partial curve, poor fit]
41 | CC1=NOC2(CCCN(C(=O)c3ccccc3)C2)C1 (stereo not drawn) | inactive
42 | C=CCOc1cc(C)c2c(c1C)[C@H](O)C([C@H](C)C(=O)N(C)Cc1ccccc1)CC2 (stereo partly drawn) | inconclusive: 44.7 µM [inhibitor, partial curve, poor fit]

Row | Structure (SMILES) | Potency
43 | O=C1OCC2=C1C(c1ccccc1)NC(=O)N2Cc1nc(C2CC2)no1 (stereo not drawn) | inconclusive: 50.1 µM [inhibitor, partial curve, poor fit]
44 | CCOc1cc2c(cn1)NCCN(Cc1ccccc1OC)C2 | inconclusive: 112 µM [inhibitor, partial curve, poor fit]
45 | CCCCn1c(=O)c(C(=O)N2CCN(C(=O)NC(C)C)CC2)nc2cccnc21 | inactive
46 | Cc1nnc([C@@H]2CC(F)(F)CN2C(=O)c2ccc3ncccc3c2)o1 | inconclusive: 89.1 µM [inhibitor, single point]
47 | O=C(N[C@@H]1[C@@H](Cc2ccccc2)[C@H]2OCC[C@@H]12)c1scc2c1OCCO2 | inconclusive: 50.1 µM [inhibitor, partial curve, poor fit]
48 | COc1ccccc1-c1cccc(CN2CCCC(C(=O)Nc3ccccc3Cl)C2)c1 (stereo not drawn) | inconclusive: 70.8 µM [inhibitor, partial curve, poor fit]
49 | Cc1ccc(OC2(C(=O)N[C@H]3CCc4ccccc43)CCNCC2)cc1 | inconclusive: 35.5 µM [inhibitor, full curve, poor fit]
50 | Cc1nn(-c2ccc(F)cc2)c(Oc2cccc(F)c2)c1CCC(=O)N(C)C(C)C | active: 50.1 µM
51 | CNC(=O)[C@H]1C[C@]2(CCCCN(CCO)C2=O)N(C(C)=O)[C@H]1c1ccccc1 | inconclusive: 89.1 µM [inhibitor, partial curve, poor fit]
52 | COc1cccc(CC(=O)N2CCC3(CC2)CC(CC(=O)NCc2ccccc2)CCO3)c1 (stereo not drawn) | inconclusive: 89.1 µM [inhibitor, partial curve, poor fit]
53 | Cc1cc(NC(=O)c2ccc3c(c2)OCCN(CCC(F)(F)F)C3)ccc1F | inconclusive: 12.6 µM [inhibitor, full curve, poor fit]
54 | COCCCNC(=O)c1ccc2nnc(C3CCCC3)n2c1 | inactive
55 | O=[S+]([O-])(c1ccccc1)N1CC2(CCCCN2CC2CC2)Cc2ccccc21 (stereo not drawn) | inconclusive: 50.1 µM [inhibitor, partial curve, poor fit]
56 | CCOc1ccccc1CNC(=O)c1noc(-c2ccc(F)cc2)n1 | inconclusive: 89.1 µM [inhibitor, single point]
57 | COc1ccc(-c2ccc(C(=O)N3CCC(NC(=O)c4cccc(Cl)c4)CC3)cc2)nn1 | inconclusive: 79.4 µM [inhibitor, partial curve, poor fit]
58 | CC1(COc2ccc3[nH]ccc3c2)COc2ccc(C(=O)Nc3cccnc3)cc2N1 (stereo not drawn) | active: 100 µM
59 | CN(C)C[C@@H]1CN(Cc2cccnc2)C[C@H]1NC(=O)c1cc2ccccc2[nH]1 | inconclusive: 56.2 µM [inhibitor, partial curve, poor fit]
60 | Cn1cnnc1-c1nn(C)c2c1CN(C(=O)c1cc3ccccc3[nH]1)CC2 | inactive
61 | COc1cc(CN(C(=O)C2CCC2)[C@H]2CCCCNC2=O)ccc1OCCc1scnc1C | inconclusive: 79.4 µM [inhibitor, partial curve, poor fit]
62 | C=CCN(Cc1cccc(OC)c1)C(=O)CCc1cccc(F)c1 | inconclusive: 56.2 µM [inhibitor, partial curve, poor fit]
63 | COc1ccc(OC)c(S(=O)(=O)N2CCC(c3nc(-c4cccn4C)no3)CC2)c1 | active: 39.8 µM
